Experimental data from the supplement of paper PMC4604168 (melanoma cell lines).
The list shows a part of the results. Many values rest on one well or one pass, so single values are uncertain.

test system: A101D; assay: cell count relative to DMSO control; melanoma cells; higher = more viable cells; settings: library dose: standard library concentration; 72 h
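Note: cells treated in 1,536-well plates, then fixed and DAPI-stained, with nuclei counted from automated high-throughput microscope images.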

| SMILES | cell count [%] |
| --- | --- |
| Cc1cn(-c2cc(NC(=O)c3ccc(C)c(Nc4nccc(-c5cccnc5)n4)c3)cc(C(F)(F)F)c2)cn1 [nilotinib] + NC1(c2ccc(-c3nc4ccn5c(=O)[nH]nc5c4cc3-c3ccccc3)cc2)CCC1 [MK2206] (first compound 1 µM, partner dose 2 µM) | 91.9 |
| COc1ccc(C2=N[C@@H](c3ccc(Cl)cc3)[C@@H](c3ccc(Cl)cc3)N2C(=O)N2CCNC(=O)C2)c(OC(C)C)c1 [Nutlin-3] + COc1ccc2c(c1)CCC1C2CCC2(C)C(NCCCCCCN3C(=O)C=CC3=O)CCC12 [U73122] (first compound 0.5 µM, partner dose 2 µM) | 46.3 |
| COc1ccc(C2=N[C@@H](c3ccc(Cl)cc3)[C@@H](c3ccc(Cl)cc3)N2C(=O)N2CCNC(=O)C2)c(OC(C)C)c1 [Nutlin-3] + O=C(Nc1ccccc1)c1cc([N+](=O)[O-])ccc1Cl [GW9662] (first compound 0.5 µM, partner dose 10 µM) | 56.7 |
| COc1ccc(C2=N[C@@H](c3ccc(Cl)cc3)[C@@H](c3ccc(Cl)cc3)N2C(=O)N2CCNC(=O)C2)c(OC(C)C)c1 [Nutlin-3] + CO[C@H]1C[C@@H]2CC[C@@H](C)[C@@](O)(O2)C(=O)C(=O)N2CCCC[C@H]2C(=O)O[C@H]([C@H](C)C[C@@H]2CC[C@@H](OCCO)[C@H](OC)C2)CC(=O)[C@H](C)/C=C(\C)[C@@H](O)[C@@H](OC)C(=O)[C@H](C)C[C@H](C)/C=C/C=C/C=C/1C [everolimus] (first compound 0.5 µM, partner dose 0.1 µM) | 63.3 |
